From publication PMC4336329 (PLoS ONE, 2015)
In all, about 310,000 compounds went through this assay and about 2,200 (0.71%) showed an effect of 50% or more. The effect is printed as a negative number. The list shows a part of the results.

Target: human ether-à-go-go-related gene (hERG) potassium channel (human, UniProt Q12809)
Assay: primary screen, population patch clamp on CHO cells stably expressing hERG

human ether-à-go-go-related gene (hERG) potassium channel, sequence (Q12809 whole entry, looked up): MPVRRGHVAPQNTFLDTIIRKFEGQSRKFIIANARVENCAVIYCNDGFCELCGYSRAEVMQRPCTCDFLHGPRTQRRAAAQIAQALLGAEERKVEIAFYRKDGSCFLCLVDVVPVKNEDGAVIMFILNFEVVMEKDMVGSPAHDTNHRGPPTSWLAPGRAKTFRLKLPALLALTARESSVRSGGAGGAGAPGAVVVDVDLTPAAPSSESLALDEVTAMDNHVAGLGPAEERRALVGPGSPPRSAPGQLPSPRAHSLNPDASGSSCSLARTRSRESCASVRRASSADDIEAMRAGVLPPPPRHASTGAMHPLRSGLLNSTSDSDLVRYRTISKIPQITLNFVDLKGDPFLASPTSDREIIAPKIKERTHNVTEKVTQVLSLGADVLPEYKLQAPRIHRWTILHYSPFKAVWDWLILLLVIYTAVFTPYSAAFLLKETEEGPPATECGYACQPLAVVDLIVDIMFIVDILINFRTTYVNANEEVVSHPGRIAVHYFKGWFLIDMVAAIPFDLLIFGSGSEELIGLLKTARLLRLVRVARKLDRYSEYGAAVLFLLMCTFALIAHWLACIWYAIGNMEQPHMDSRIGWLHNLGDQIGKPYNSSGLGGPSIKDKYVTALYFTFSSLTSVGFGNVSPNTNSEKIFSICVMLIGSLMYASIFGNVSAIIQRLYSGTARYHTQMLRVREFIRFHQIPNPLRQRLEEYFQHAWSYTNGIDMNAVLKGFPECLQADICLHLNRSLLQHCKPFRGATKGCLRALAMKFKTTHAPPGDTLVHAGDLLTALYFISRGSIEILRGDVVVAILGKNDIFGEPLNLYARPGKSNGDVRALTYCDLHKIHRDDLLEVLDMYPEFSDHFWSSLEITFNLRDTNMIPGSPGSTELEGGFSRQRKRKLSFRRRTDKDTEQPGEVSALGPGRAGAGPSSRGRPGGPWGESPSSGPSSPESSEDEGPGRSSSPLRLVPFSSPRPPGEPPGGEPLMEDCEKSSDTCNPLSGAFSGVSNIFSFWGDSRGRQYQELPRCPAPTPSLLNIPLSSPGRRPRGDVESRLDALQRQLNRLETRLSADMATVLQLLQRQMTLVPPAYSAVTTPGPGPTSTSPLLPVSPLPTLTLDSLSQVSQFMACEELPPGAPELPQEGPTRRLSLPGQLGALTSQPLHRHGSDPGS

| SMILES | hERG current change (%, negative = inhibition) at 1uM [%] |
| --- | --- |
| C[n+]1cccc2ccc3c(c21)OC(N)=C(C#N)C3c1ccccc1.[I-] (stereo not shown) | -2.67 |
| CC(C)N1CCN(Cc2ccoc2)CC1CCO (stereo not shown) | 16.1 |
| Cc1nc(-c2ccc(S(=O)(=O)Nc3cc(F)ccc3F)cc2)co1 | 12.7 |
| Cc1nc(-c2nnc(SCC(=O)Nc3cc(Cl)cc(Cl)c3)n2C)cs1 | 10.6 |
| COc1cc(N2CCCC2)c(OC)cc1/C=C(/C#N)c1cccc(F)c1 | 10.7 |
| COC(=O)c1cc(S(=O)(=O)N2CCN(Cc3ccccc3)CC2)c[nH]1 | 14.1 |
| O=C(Nc1ccccc1)C1Cc2ccccc2CN1C(=O)c1ccco1 (stereo not shown) | 15.9 |
| COc1cc(NC(=O)c2ccc3c(c2)OCCO3)ccc1NC(=O)c1ccccc1Cl | 13.7 |
| CCCCC(OC(=O)CN1C(=O)COc2ccccc21)C(=O)NC1CCCCC1 (stereo not shown) | 1.92 |
| COc1cc(/C=N/NC(=O)c2ccc(CSc3nc4ccccc4[nH]3)cc2)ccc1O | 15.4 |
| O=C(NC(=S)NCc1ccc(-c2nc3ccccc3s2)cc1)c1ccco1 | 17.1 |
| CCOc1ccc(S(=O)(=O)N2CCC(C(=O)NCc3ccco3)CC2)cc1C | 8.98 |
| O=C(Nc1ccccc1Cl)C1CCCN(c2ncnc3c2nc2n3CCCCC2)C1 (stereo not shown) | 10.2 |
| COc1ccc(CCNC(=S)N2CCN(S(=O)(=O)c3ccc(C)cc3)CC2)cc1 | 17.9 |
| O=C(CSc1nc2ccc(Cl)cc2[nH]1)NC1CCCc2ccccc21 (stereo not shown) | 9.31 |
| CC(C)(C)OC(=O)NCc1ccc(CNC(=O)c2[nH]cnc2C(=O)N[C@@H](Cc2ccccc2)C(=O)OC(C)(C)C)cc1 | -4.54 |
| Fc1cccc(Cc2noc(CN3CCN(c4cnccn4)CC3)n2)c1 | 6.65 |
| CN1CCN(S(=O)(=O)c2cccc(C(=O)N(Cc3ccccc3)c3ccccc3)c2)CC1 | -7.88 |
| COc1ccc(NC(=O)CSc2nnc(-c3cccnc3)o2)cc1 | -7.57 |
| CC(/C=N/NC(=O)CSc1n[nH]c(=O)[nH]c1=O)=C\c1ccccc1 | 17.7 |
| O=C1C2C3CC(C2C(=O)N1c1cccc(Cl)c1)[C@H](O)C3O (stereo partly shown) | 10.7 |
| CC(C)n1c(-c2ccc(N(C)C)cc2)nc2ccccc21 | -10.3 |

| SMILES | hERG current change (%, negative = inhibition) at 1uM [%] |
| --- | --- |
| O=C(Nc1ccccc1)c1ccc(S(=O)(=O)NCC2CCCO2)cc1 (stereo not shown) | 8.3 |
| Cc1ccc(NC(=O)COc2ccc(-n3ccnc3)cc2)cc1Cl | 9.75 |
| CCOc1ccc(S(=O)(=O)N2CCCCC2)cc1NC(=O)CN1C(=O)NC(C)(c2ccccc2)C1=O (stereo not shown) | -1.31 |
| COc1cccc(C(=O)N(C)c2nnc(-c3ccncc3)s2)c1 | 8.46 |
| CC(C)(Oc1ccc(CCNC(=O)c2ccc(-c3ccccc3)o2)cc1)C(=O)O | 14 |
| COCc1c(C(=O)N2CCN(S(=O)(=O)c3ccccc3Cl)CC2)oc2ccccc12 | 5.51 |
| Cc1cc(C=O)c(C)n1-c1ccc(Cl)c(C(=O)O)c1 | 11.2 |
| O=C(NCc1ccccn1)C(=O)N/N=C/c1ccccc1O | 9.96 |
| CCc1cc(C(=O)c2ccccc2)c(N)s1 | -0.56 |
| Cc1cc(Cl)ccc1OCC(=O)Nc1ccncc1 | 10.9 |
| CS(=O)(=O)N(CC(=O)Nc1ccccc1Sc1ccccc1)C1CCCCC1 | 10.2 |
| CC(=O)c1nn(-c2cccc(Br)c2)cc1C(=O)c1ccco1 | 4.83 |
| Cc1ccc(S(=O)(=O)CC(C)N2CCN(C3CCCCC3)CC2)cc1 (stereo not shown) | -3.39 |
| O=C(CN1CCCCCC1)NCCc1ccc(F)cc1.O=C(O)C(=O)O | 0.367 |
| O=C1NC(c2ccccc2)Oc2ccccc21 (stereo not shown) | 11.7 |
| COc1cc2c(cc1NC(=O)CSc1nnc(Cc3cccs3)n1C)oc1ccccc12 | 9.32 |
| Cc1ccc(C(=O)C2OC(=O)C(C)(C)C(=O)C2(C)C)cc1 (stereo not shown) | 2.32 |
| O=C(CNC(=O)c1ccc(Cl)cc1)OC1CCOC1=O (stereo not shown) | 10.9 |
| CCO[C@H]1OC(C(=O)N2CCN(Cc3ccccc3)CC2)=C[C@@H](c2ccc(C(F)(F)F)cc2)[C@@H]1CCCO | 11.5 |
| COc1ccc2[nH]c(=O)c(CNc3cccc(C)c3)cc2c1 | 3.98 |
| COc1ccc(-n2cnc(N)c2C(=O)c2cccc([N+](=O)[O-])c2)cc1 | 6.43 |
